No constants are given. Whether binding was seen depends on the method and setting. Binding seen in cells or lysates may run through a third protein. Some binding calls cover weakened binding; strength is not graded here.
Key:
[1] = target: T1, RB1 (wild type, co-immunoprecipitations in cells) (UniProt P06400); test: co-IP; in cells; lysis in EBC buffer (50 mM Tris-HCl pH 7.4, 120 mM NaCl, 0.5% NP-40), 1000 μg lysate protein with antibody-conjugated protein A/G beads or HA-/Flag-agarose beads at 4 °C, washed four times with NETN buffer, immunoblot; with or without ribociclib (Fig. 2i)
T1 sequence: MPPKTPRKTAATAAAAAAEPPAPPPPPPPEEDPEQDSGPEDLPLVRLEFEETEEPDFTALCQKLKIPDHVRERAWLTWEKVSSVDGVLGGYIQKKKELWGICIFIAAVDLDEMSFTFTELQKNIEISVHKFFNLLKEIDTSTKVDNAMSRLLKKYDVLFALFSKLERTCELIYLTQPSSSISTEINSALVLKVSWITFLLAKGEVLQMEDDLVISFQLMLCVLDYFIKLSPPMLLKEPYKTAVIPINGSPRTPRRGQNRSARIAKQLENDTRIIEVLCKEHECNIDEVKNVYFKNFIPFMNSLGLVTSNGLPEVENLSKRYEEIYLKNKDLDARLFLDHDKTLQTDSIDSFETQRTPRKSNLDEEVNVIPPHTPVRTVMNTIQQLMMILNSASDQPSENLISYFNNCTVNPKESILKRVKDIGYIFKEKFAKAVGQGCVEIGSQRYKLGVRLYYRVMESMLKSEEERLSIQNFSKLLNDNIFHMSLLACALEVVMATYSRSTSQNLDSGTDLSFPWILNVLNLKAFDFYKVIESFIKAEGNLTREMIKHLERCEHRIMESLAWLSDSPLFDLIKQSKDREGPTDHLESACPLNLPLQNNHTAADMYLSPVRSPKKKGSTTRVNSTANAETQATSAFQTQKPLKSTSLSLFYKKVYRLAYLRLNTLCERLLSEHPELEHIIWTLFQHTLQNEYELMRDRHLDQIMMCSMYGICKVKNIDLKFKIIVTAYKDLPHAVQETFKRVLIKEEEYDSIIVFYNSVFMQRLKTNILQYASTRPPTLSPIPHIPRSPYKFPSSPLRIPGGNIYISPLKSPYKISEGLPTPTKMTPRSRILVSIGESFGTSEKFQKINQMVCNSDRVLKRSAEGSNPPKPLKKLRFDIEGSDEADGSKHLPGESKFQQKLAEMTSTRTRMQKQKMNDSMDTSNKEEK

Chains of the proteins cited; added tags and fusions are not shown.
UniProt P08047: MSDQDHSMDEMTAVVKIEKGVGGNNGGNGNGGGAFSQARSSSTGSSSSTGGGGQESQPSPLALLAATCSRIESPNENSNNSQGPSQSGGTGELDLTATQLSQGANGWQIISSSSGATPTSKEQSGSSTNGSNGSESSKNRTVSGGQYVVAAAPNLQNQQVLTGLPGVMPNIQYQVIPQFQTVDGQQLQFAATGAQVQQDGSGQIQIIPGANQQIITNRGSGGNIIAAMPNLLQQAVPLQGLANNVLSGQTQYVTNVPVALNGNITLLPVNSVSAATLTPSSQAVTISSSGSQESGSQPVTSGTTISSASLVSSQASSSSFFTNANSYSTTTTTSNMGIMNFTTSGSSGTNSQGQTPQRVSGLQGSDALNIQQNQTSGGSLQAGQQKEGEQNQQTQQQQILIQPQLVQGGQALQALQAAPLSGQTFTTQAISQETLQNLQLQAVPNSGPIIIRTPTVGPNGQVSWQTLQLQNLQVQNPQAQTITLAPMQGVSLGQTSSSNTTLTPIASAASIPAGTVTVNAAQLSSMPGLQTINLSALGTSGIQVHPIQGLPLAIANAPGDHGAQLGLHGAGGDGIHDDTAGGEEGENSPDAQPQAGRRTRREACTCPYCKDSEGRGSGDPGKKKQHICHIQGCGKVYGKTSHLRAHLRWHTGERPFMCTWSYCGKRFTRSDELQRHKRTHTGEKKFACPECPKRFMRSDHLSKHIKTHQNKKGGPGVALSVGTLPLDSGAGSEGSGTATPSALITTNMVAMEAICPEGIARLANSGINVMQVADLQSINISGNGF
UniProt Q08999: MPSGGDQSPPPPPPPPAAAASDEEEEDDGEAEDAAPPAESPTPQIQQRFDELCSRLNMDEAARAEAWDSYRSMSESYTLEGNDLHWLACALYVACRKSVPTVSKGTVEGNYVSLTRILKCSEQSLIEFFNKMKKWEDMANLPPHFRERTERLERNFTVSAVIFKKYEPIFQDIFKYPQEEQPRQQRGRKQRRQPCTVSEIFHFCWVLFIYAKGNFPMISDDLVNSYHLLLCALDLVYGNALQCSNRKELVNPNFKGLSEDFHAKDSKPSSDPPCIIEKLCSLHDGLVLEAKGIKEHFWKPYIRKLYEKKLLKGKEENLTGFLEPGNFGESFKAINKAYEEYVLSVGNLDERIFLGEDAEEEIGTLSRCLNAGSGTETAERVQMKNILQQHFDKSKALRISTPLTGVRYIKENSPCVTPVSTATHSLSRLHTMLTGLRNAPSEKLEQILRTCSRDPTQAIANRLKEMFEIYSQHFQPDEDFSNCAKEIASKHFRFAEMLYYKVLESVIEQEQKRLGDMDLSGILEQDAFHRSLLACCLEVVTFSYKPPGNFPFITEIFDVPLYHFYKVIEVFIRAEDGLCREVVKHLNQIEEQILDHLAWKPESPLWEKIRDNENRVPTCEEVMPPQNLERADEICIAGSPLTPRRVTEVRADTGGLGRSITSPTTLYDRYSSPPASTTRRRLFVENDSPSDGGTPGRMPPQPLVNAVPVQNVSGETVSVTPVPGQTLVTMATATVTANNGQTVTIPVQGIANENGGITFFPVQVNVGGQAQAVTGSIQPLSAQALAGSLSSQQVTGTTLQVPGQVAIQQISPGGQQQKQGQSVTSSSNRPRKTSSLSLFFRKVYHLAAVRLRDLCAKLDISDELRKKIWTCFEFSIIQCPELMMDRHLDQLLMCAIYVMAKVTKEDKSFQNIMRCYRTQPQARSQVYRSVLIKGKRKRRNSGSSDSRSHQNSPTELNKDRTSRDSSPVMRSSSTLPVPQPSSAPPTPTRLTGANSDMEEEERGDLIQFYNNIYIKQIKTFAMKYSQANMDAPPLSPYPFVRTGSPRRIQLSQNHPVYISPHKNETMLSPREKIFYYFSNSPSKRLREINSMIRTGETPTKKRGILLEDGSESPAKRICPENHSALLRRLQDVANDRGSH
UniProt Q12834: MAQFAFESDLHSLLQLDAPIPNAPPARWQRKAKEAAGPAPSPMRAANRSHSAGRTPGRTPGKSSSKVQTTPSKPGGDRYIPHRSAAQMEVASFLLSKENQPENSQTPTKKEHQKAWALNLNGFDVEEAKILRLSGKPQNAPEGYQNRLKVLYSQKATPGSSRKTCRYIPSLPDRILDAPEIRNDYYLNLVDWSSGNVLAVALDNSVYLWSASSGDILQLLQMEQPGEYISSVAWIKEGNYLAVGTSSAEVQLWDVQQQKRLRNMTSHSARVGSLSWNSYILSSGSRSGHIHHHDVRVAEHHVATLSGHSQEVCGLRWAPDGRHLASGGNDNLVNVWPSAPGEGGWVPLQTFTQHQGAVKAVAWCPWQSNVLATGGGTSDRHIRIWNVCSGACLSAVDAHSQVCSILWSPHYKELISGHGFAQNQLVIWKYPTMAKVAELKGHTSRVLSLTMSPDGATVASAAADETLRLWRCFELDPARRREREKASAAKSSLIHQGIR
UniProt P49674: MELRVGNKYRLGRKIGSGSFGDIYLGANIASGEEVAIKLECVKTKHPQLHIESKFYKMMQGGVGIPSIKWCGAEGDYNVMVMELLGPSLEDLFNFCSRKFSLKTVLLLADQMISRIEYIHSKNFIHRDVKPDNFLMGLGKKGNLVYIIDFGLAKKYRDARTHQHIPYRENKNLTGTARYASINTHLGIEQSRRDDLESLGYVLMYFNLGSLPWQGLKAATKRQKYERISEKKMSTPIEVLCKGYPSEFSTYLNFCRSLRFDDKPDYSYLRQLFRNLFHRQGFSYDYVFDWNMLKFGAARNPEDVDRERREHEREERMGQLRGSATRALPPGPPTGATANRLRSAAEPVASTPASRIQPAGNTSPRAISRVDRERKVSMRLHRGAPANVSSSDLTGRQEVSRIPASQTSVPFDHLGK
UniProt Q969H0: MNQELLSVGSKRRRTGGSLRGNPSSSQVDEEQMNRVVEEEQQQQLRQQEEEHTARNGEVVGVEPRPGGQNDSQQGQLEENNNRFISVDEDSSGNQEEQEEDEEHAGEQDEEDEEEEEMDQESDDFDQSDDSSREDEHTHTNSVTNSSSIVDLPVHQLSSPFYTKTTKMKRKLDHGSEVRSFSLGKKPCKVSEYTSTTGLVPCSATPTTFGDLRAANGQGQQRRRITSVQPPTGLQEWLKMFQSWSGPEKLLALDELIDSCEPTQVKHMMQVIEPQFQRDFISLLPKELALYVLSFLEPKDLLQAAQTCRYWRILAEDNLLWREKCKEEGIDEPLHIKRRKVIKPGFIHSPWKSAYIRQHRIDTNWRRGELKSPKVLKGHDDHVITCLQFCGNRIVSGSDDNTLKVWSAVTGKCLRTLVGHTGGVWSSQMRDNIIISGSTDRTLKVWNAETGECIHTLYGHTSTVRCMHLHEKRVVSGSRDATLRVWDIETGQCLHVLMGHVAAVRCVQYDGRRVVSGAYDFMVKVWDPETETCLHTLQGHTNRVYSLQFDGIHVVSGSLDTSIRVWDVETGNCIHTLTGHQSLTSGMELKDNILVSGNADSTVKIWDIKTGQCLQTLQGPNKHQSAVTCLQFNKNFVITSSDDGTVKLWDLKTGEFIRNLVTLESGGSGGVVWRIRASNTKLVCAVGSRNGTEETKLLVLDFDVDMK
UniProt Q9Y297: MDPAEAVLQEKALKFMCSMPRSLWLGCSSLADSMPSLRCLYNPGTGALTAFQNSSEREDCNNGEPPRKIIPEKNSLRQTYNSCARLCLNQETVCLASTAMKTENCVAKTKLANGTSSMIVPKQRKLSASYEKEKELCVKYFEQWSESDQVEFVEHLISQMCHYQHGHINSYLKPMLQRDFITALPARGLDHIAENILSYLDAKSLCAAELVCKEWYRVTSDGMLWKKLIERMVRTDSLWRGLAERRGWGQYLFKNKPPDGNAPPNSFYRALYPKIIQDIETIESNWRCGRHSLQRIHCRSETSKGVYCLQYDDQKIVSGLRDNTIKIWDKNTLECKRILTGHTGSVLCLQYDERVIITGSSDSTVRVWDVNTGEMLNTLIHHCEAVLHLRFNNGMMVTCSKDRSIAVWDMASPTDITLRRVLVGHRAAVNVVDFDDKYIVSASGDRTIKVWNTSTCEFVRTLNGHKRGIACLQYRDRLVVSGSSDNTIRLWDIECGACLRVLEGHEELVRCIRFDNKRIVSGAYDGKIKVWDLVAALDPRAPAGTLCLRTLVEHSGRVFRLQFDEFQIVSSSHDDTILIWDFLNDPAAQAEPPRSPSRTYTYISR

SP1 = SP1 (UniProt P08047); test: as above
[2] = target: T2, RB1 in MDA-MB-231 cells (human (endogenous in MDA-MB-231)) (UniProt P06400); test: co-IP; MDA-MB-231 cells serum starved for 48 h, then serum re-addition and harvest at indicated time points; interaction seen in G1 phase
T2 sequence: T1 sequence

p130 = p130 (UniProt Q08999); test: co-IP; in cells; lysis in EBC buffer (50 mM Tris-HCl pH 7.4, 120 mM NaCl, 0.5% NP-40), 1000 μg lysate protein with antibody-conjugated protein A/G beads or HA-/Flag-agarose beads at 4 °C, washed four times with NETN buffer, immunoblot; with or without ribociclib (Fig. 2i)
p107 = target: T3, p107 (UniProt P28749); test: as above
T3 sequence: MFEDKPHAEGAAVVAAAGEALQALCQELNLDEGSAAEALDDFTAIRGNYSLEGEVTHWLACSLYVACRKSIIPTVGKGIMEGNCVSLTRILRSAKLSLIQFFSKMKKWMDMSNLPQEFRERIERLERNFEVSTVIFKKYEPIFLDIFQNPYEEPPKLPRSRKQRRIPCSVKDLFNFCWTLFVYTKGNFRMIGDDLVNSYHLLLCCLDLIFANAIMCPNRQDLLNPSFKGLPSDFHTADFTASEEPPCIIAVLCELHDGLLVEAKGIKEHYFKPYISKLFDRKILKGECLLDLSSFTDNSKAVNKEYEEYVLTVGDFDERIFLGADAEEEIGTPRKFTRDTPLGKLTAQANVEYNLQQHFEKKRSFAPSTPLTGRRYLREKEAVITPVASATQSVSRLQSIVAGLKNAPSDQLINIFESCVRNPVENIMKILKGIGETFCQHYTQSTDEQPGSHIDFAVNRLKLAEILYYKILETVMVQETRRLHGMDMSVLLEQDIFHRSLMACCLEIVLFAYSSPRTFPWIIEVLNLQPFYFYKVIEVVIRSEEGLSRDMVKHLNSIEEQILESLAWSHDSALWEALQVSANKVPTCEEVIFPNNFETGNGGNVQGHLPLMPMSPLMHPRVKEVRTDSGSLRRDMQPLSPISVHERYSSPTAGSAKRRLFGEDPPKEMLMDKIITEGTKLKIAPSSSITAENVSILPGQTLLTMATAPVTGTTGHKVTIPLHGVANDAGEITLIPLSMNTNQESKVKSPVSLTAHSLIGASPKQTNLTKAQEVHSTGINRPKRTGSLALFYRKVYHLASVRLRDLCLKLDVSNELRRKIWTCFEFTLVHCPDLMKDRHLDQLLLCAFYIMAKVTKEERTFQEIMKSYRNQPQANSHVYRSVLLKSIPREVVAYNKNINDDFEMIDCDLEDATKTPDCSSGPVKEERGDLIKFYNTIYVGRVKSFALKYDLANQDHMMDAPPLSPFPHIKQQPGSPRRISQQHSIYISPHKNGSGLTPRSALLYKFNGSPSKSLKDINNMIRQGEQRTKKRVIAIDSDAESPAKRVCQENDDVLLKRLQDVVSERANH

Substance	binding [1]	binding [2]	other results
CDC20 (co-immunoprecipitation in cells) (from UniProt Q12834 1-499)	binds	–	–
CK1ε (co-immunoprecipitation in cells) (from UniProt P49674 1-416) (enzyme)	binds	–	binding (SP1): binds
FBXW7 (co-immunoprecipitation in cells) (from UniProt Q969H0 1-707)	binds	–	–

The next lines start with results.

binding [1]	binding [2]	Substance	other results
–	binds	CK1ε in MDA-MB-231 cells (from UniProt P49674 1-416) (enzyme)	–
binds	–	βTrCP1 (co-immunoprecipitation in cells) (from UniProt Q9Y297 1-605)	binding (p130): no binding; binding (p107): no binding
–	binds	βTrCP1 in MDA-MB-231 cells (from UniProt Q9Y297 1-605)	–

From publication PMC8433397
